# Test results published in article PMC4336329 (PLoS ONE, 2015).
# Hit rate of the full screen: of about 310,000 compounds, about 2,200 (0.71%) showed an effect of 50% or more. The effect is printed as a negative number. This is one part of the list.
# Molecular target: human ether-à-go-go-related gene (hERG) potassium channel (human, UniProt Q12809)
# Test: primary screen, population patch clamp on CHO cells stably expressing hERG
# Chain of human ether-à-go-go-related gene (hERG) potassium channel (Q12809 whole entry, looked up): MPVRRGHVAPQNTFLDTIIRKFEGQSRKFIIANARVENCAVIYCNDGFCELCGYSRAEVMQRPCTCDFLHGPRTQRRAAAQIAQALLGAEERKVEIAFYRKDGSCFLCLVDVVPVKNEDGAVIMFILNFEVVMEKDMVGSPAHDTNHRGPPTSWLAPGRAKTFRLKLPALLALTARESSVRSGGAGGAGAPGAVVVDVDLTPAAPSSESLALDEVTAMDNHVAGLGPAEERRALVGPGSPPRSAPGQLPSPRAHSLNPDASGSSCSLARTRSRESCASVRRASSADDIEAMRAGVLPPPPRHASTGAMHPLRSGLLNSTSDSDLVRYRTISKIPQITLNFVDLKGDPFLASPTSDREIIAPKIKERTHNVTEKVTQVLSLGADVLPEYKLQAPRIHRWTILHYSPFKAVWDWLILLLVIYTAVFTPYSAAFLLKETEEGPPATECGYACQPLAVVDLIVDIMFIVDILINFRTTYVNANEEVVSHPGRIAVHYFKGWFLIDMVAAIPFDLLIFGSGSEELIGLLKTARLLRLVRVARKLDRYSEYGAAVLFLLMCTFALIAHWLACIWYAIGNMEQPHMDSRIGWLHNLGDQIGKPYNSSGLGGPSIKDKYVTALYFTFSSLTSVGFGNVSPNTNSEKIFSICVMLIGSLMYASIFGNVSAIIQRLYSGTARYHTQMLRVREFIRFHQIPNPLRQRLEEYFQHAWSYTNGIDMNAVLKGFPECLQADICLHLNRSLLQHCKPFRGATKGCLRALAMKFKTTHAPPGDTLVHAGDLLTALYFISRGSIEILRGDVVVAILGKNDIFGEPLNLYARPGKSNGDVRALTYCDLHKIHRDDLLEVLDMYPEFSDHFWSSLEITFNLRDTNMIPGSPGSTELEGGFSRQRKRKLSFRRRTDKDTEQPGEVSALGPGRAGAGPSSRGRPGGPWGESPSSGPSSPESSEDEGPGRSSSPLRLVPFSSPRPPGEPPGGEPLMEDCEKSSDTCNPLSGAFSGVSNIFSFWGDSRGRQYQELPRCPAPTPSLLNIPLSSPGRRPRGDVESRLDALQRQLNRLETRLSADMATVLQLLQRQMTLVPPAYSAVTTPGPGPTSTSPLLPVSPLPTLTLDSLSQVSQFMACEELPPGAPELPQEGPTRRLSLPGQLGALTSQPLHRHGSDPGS
row,Compound,"hERG current change (%, negative = inhibition) at 1uM [%]"
1,O=C(COC(=O)c1cc2ccccc2o1)c1ccccc1,2.17
2,O=C(O)CC1(CC(=O)N2CCC(C(=O)O)CC2)CCCC1,12.6
3,CCCCn1c(N)c(N(CCC(C)C)C(=O)C2CCCO2)c(=O)[nH]c1=O (centres unmarked),12.8
4,Cc1c(C(=O)N2CCCCC2)c(S(=O)(=O)Nc2ccc(F)cc2F)c(C)n1C,9.18
5,COc1ccc(-n2c(C)cc(C(=O)CCl)c2C)cc1,11.6
6,CCCCn1c(N)c(N(C)C(=O)c2ccc(OCC3CCCO3)cc2)c(=O)[nH]c1=O (centres unmarked),12.9
7,Fc1ccc(-c2nn3c(C4COc5ccccc5O4)nnc3s2)cc1 (centres unmarked),6.47
8,COc1c(Cl)ccc(Cl)c1C(=O)NCc1ccco1,1.97
9,CCOc1ccc(NC(=S)NNC(=O)c2ccc(Br)cc2)cc1,12.1
10,O=C(CN1CCN(C(=O)c2cncn2-c2ccc(F)cc2)CC1)Nc1ccccc1C(F)(F)F,-68.3
11,O=C(NCCCCc1ccccc1)C1CCCC1,8.16
12,O=C(CN(Cc1ccccc1)S(=O)(=O)c1ccc2c(c1)OCCO2)N/N=C/c1cccc(Br)c1,-8.39
13,COc1cc(CN2CCN(c3ccc(C)cc3)CC2)cc([N+](=O)[O-])c1O,3.29
14,Cc1cc(C)cc(N2CC(O)Cn3c2nc2c3c(=O)[nH]c(=O)n2C)c1 (centres unmarked),9.84
15,Cc1ccccc1C(=O)Oc1cccc2c(O)cccc12,14.6
16,CCc1nc(Nc2ccc3c(c2)OCO3)c2oc3ccccc3c2n1.Cl,12.2
17,O=C(CCNC(=O)c1ccc(Br)o1)NCc1ccccn1,1.3
18,Cn1cc(SCC(=O)NC2CCCCC2)c2ccccc21,9.81
19,COc1cccc(NC(=O)Nc2nnc(Cc3ccccc3F)s2)c1,16.4
20,Cc1cc(NC(=O)C(=O)c2cn(C)c3ccccc23)no1,2.75

row,Compound,"hERG current change (%, negative = inhibition) at 1uM [%]"
1,CCOC(=O)CNC(=O)CSc1nnc(Cn2cnc3ccccc32)n1C,2.46
2,Cc1sc(NC(=O)c2ccco2)c(C(c2cccnc2)N2CCCC2)c1C (centres unmarked),15.9
3,CCOC(=O)CCNC(=O)N1CCCC(C(=O)c2cccc(OC(C)C)c2)C1 (centres unmarked),5.89
4,COc1ccc(C2CCCN2CC(O)COc2ccccc2C(C)C)cc1 (centres unmarked),1.71
5,CCOc1ccc(CN(C)C(=O)CNC(=O)c2ccc3ccccc3c2)cc1OC,3.85
6,O=C(CSC(=S)N1CCOCC1)c1cc2ccccc2oc1=O,1.52
7,O=C(O)CSCC(=O)N1CCCCC1,8.66
8,COc1ccc(OC)c(/C=N/NC2=NS(=O)(=O)c3ccccc32)c1,-5.31
9,OCC[C@@H]1C[C@@H](O)[C@H](O)[C@]2(CCc3ccccc3O2)O1,15.8
10,NC(=O)C1(N2CCCCC2)CCN(S(=O)(=O)c2cc(Cl)sc2Cl)CC1,-1.33
11,COc1ccc(CNS(=O)(=O)c2ccc(S(=O)(=O)N3CCCCC3)cc2)cc1,10.9
12,O=C(CSc1n[nH]c(=O)n1Cc1ccccc1)Nc1ccc(F)c(F)c1F,15.7
13,CCOc1ccc(NC(=O)CN(C)Cc2cc(=O)n3c(-c4ccccc4)csc3n2)cc1OCC,10.9
14,Cc1ccc(N2C(=O)C(CN3CCOCC3)C2c2ccccc2)cc1 (centres unmarked),-1.12
15,c1ccc(-c2nc(Sc3ncnc4c3cnn4-c3ccccc3)n[nH]2)cc1,3
16,COc1ccc(CNC(=O)c2cnc(C)cn2)c(OC)c1,-5.1
17,COc1ccc(NC(=O)NS(=O)(=O)c2ccc(C)cc2)cn1,13
18,CC1=C(C(=O)Nc2ccccc2)S(=O)(=O)CCO1,13.3
19,Cc1cc(N2CCOCC2)ccc1/C=C1\SC(=O)N(C(C)C)C1=O,-15.4
20,O=C1C=C(NC2CCCCC2)CCC1,-1.37

row,Compound,"hERG current change (%, negative = inhibition) at 1uM [%]"
1,COc1ccc(OC)c(NC(=O)CCCC(=O)NC2CCCCC2)c1,10.6
2,COC(=O)CCCNc1ncccc1[N+](=O)[O-],14.8
3,Cc1nn(C)c(C)c1NC(=O)Nc1cccc(C(F)(F)F)c1,-9.49
4,NC(=O)NC(Cc1ccccc1)C(=O)Nc1ccc(S(N)(=O)=O)cc1 (centres unmarked),-5.7
5,CCN(CC)C(=O)CSc1nnc(CNc2ccc(F)cc2)n1Cc1ccco1,10.2
6,COc1ccc(-c2cc(C)no2)cc1S(=O)(=O)N(C)c1cccc(C)c1,-62.5
7,Oc1cccc(Nc2nc(O)c(/C=C3\C=Nc4ccccc43)s2)c1,12.8
8,COc1ccc(OCC(O)CN2CCN(c3ccccc3)CC2)cc1.Cl (centres unmarked),2.9
9,Nc1nnc(SCC(=O)NC2CCCCCC2)s1,15.7
10,Cc1c(CCO)c(=O)n(-c2ccccc2)n1S(=O)(=O)c1ccc(F)cc1,11.9
11,CCC(C(=O)Nc1ccc(C(C)C)cc1)c1ccccc1 (centres unmarked),9.2
12,CCNC(=S)/C(=C(/[O-])c1ccc([N+](=O)[O-])cc1)[n+]1ccccc1,15.3
13,CC1CCN(Cc2nnnn2CCCC(=O)NCCc2cnn(C)c2)CC1,16
14,O=C1Nc2cc3c(cc2C1=O)sc1ccccc13,19.4
15,Cc1cccc(CCNC(=O)CC2C(=O)NCCN2Cc2ccccc2C)n1 (centres unmarked),4.42
16,CC(=O)N1CCN(c2ccccc2NC(=O)Cc2ccc(Cl)cc2)CC1,-17.2
17,Cc1nn(-c2ccccc2)c(C)c1C(=O)OCC(=O)Nc1ccccc1,-0.52
18,Cc1ccc(S(=O)(=O)N2CCCC2)cc1C(=O)NCc1ccccn1,9.69
19,CC(Cc1ccccc1)NC(=O)CCCN1C(=O)c2ccccc2C1=O (centres unmarked),9.28
